For 12 compounds, growth inhibition call results are on record in the antibiotic and cytotoxicity screens of Wong et al. (2023).

Some of the results follow.

This experiment relates to S. aureus RN4220. As to the kind of experiment: growth inhibition call (relative growth <= 0.2). Particulars: 50 µM.
`CS(=O)(=O)Nc1ccc2c(c1)C(=O)NC2=O`: the growth inhibition call was “inactive”.

Turning to `NCc1nncn1-c1ccc(F)cc1`, the growth inhibition call was “inactive”. Take `CNC(=O)c1cnc2n1CCN(Cc1nccn1C)C2`: the growth inhibition call was “inactive”. On to `COc1cccc(C#Cc2ccc3c(c2)O[C@@H](CN(C)C(=O)c2ccccn2)[C@@H](C)CN([C@H](C)CO)S3(=O)=O)c1`, for which the growth inhibition call was “inactive”. `CC[C@@H]1OC[C@@H]2CN(C(=O)CN(C)C)CC[C@H]21`: the growth inhibition call was “inactive”. Then `C[C@@H]1CN([C@@H](C)CO)C(=O)Cc2cc(NS(=O)(=O)c3ccc(Cl)cc3)ccc2O[C@@H]1CN(C)C`, with “inactive”; and `CCNC(=O)C[C@H]1CC[C@H]2[C@H](COc3ccc(NS(=O)(=O)c4ccccc4C)cc3C(=O)N2C)O1`, with “inactive”; and `C[C@H]1CN([C@@H](C)CO)C(=O)c2cccc(NC(=O)c3cnccn3)c2O[C@H]1CN(C)C(=O)Nc1ccc2c(c1)OCO2`, with “inactive”. Consider `COC(=O)[C@@H]1CC(=O)O[C@H](C)C/C=C/C=C/[C@H](O)[C@H](C)C[C@H](CC=O)[C@H](O[C@H]2O[C@H](C)[C@@H](O[C@H]3C[C@@](C)(O)[C@@H](OC(=O)CC(C)C)[C@H](C)O3)[C@H](N(C)C)[C@H]2O)[C@H]1OC`, for which the growth inhibition call is “active”.

Consider `O=C(C[C@@H]1C=C[C@H](NC(=O)c2ccc(F)cc2)[C@H](CO)O1)NCc1ccncn1`, for which the growth inhibition call is “inactive”. Consider `C[C@@H]1CN([C@H](C)CO)C(=O)c2cc(NC(=O)Nc3ccccc3)ccc2O[C@@H]1CN(C)C(=O)Nc1cccc2ccccc12`, for which the growth inhibition call was “inactive”. Turning to `COCCN1CCNCC1`, the growth inhibition call was “inactive”.
